Assay results: paper PMC5493753
These are yes or no findings as the source states them, for the method shown. Binding seen in cells or lysates may run through a third protein. Some results given as binding are weak or reduced against the parent protein; the word gives no strength. For some assays here: Tags and fused reporters may be left off the sequences shown.

By UniProt entry, the sequences of proteins in these tests, tags left out.
UniProt Q9ULZ3: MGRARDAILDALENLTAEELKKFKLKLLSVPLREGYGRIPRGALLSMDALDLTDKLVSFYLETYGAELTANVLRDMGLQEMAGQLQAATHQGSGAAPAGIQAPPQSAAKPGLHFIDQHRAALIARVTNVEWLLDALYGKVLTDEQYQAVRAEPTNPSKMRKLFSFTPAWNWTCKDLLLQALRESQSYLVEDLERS
UniProt Q3UP24: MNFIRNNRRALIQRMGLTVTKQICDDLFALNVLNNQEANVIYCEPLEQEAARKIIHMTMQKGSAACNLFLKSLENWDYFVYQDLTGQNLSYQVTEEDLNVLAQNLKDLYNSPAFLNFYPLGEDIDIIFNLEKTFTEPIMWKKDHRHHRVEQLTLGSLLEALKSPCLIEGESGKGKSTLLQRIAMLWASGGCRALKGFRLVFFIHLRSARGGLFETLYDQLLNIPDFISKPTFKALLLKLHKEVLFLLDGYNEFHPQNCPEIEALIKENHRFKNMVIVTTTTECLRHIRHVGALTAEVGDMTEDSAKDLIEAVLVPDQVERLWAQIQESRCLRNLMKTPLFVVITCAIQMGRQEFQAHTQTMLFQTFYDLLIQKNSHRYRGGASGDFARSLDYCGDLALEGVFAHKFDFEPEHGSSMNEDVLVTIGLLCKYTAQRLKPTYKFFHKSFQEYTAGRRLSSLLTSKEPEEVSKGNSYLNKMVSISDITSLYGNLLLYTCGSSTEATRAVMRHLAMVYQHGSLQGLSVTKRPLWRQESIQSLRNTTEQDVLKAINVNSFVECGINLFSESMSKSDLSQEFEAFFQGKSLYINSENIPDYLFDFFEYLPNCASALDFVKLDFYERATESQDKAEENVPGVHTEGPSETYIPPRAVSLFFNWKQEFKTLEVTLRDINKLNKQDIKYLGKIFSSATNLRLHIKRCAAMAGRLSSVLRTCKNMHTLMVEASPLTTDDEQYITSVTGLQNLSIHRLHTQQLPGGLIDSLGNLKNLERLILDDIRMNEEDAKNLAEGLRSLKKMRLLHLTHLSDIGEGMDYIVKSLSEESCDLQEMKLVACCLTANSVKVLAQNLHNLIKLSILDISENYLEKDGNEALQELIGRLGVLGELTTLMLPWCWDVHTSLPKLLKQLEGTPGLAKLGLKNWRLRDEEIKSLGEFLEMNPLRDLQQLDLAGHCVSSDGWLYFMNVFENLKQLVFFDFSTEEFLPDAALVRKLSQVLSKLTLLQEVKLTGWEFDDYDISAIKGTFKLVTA
UniProt Q8R4B8: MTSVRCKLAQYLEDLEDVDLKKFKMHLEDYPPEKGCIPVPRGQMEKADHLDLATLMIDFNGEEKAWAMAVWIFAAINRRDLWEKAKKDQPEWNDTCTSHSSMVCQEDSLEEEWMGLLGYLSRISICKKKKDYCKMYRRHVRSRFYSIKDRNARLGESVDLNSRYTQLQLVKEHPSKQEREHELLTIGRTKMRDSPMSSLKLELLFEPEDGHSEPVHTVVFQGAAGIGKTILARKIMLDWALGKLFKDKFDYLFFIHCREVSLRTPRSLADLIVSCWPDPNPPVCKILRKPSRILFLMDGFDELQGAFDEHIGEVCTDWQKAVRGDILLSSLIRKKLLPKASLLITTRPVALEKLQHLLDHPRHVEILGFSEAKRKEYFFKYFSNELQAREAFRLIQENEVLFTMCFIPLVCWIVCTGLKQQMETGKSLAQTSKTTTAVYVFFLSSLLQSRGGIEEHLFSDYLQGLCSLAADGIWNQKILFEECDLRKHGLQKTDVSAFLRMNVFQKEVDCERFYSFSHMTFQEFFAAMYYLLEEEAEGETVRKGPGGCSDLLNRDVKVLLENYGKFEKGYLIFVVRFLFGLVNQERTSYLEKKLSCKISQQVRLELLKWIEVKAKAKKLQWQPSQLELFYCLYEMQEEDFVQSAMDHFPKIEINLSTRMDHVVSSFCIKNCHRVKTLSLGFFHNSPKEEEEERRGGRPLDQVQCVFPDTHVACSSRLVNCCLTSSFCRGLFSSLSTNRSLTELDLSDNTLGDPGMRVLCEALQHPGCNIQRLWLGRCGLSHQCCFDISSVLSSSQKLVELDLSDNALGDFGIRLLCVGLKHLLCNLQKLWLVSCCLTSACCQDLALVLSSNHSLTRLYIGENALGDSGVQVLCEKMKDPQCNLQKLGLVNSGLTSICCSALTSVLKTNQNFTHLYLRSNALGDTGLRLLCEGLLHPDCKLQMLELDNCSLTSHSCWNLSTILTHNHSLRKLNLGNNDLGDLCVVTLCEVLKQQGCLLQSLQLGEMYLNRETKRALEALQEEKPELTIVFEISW
UniProt Q96L34: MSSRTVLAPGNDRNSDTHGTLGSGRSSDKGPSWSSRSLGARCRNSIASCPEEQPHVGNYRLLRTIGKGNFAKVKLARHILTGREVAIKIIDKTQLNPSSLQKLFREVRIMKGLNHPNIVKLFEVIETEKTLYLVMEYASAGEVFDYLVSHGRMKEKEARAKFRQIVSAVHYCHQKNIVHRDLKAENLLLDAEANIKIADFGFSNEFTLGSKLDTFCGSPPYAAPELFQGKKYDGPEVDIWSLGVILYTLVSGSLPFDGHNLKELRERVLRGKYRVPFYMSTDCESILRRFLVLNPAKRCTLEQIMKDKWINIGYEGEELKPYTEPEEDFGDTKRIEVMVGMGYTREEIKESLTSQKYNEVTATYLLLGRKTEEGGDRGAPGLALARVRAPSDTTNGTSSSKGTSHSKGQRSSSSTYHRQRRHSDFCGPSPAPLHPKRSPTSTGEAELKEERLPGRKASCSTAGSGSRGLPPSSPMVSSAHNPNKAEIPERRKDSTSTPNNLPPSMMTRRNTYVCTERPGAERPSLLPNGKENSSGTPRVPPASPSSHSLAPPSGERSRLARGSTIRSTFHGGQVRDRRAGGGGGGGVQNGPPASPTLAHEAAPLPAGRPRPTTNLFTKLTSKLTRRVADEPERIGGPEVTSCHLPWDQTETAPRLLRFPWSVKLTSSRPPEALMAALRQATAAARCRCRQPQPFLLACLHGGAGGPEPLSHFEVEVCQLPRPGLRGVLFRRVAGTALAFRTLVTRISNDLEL
UniProt Q8CIP4: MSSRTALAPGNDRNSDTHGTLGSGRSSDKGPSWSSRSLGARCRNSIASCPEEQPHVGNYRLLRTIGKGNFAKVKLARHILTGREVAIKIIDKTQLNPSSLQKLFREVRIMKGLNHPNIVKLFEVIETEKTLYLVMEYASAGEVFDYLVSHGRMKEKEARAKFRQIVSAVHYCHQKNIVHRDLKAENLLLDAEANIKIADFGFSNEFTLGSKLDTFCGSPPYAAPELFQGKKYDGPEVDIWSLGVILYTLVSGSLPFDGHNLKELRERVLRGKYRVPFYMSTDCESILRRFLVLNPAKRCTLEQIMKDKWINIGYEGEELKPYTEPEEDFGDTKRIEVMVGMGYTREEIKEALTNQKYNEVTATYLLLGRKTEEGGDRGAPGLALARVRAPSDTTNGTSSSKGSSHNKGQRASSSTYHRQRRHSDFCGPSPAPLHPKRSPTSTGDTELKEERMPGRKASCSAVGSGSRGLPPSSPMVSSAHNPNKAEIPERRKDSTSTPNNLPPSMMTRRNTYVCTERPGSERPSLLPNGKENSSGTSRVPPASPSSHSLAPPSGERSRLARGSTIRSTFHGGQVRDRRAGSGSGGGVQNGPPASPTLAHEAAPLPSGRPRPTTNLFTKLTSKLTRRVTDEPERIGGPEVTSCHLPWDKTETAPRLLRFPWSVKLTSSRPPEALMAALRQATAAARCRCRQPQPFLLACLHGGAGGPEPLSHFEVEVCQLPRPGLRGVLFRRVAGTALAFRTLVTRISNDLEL

Columns and labels:
[1] = molecular target: T1, Flag-tagged human AIM2 (human) (UniProt O14862); assay: co-IP; HEK293T co-transfected with HA-tagged and Flag-tagged proteins; triton lysis buffer (10 mM Tris-HCl pH 8.0, 2.5 mM MgCl2, 5 mM EGTA, 0.5% Triton X-100); anti-Flag M2 magnetic beads or anti-HA matrix; western blot
T1 sequence: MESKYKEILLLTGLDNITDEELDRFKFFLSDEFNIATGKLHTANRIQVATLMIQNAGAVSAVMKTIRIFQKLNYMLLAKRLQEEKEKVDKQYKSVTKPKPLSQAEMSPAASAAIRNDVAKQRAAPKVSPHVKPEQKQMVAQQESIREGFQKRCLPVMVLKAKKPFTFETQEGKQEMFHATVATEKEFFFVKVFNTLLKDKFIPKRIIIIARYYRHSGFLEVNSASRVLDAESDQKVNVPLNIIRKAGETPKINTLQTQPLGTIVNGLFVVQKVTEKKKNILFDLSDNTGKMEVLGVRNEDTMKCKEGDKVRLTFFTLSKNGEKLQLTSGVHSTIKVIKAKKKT

[2] = molecular target: Flag-tagged human ASC (apoptosis-associated Speck-like protein with a caspase-recruitment domain) (human) (UniProt Q9ULZ3); assay: as above
[3] = molecular target: T2, Flag-tagged human NLRP1 (human) (UniProt Q9C000); assay: as above
T2 sequence: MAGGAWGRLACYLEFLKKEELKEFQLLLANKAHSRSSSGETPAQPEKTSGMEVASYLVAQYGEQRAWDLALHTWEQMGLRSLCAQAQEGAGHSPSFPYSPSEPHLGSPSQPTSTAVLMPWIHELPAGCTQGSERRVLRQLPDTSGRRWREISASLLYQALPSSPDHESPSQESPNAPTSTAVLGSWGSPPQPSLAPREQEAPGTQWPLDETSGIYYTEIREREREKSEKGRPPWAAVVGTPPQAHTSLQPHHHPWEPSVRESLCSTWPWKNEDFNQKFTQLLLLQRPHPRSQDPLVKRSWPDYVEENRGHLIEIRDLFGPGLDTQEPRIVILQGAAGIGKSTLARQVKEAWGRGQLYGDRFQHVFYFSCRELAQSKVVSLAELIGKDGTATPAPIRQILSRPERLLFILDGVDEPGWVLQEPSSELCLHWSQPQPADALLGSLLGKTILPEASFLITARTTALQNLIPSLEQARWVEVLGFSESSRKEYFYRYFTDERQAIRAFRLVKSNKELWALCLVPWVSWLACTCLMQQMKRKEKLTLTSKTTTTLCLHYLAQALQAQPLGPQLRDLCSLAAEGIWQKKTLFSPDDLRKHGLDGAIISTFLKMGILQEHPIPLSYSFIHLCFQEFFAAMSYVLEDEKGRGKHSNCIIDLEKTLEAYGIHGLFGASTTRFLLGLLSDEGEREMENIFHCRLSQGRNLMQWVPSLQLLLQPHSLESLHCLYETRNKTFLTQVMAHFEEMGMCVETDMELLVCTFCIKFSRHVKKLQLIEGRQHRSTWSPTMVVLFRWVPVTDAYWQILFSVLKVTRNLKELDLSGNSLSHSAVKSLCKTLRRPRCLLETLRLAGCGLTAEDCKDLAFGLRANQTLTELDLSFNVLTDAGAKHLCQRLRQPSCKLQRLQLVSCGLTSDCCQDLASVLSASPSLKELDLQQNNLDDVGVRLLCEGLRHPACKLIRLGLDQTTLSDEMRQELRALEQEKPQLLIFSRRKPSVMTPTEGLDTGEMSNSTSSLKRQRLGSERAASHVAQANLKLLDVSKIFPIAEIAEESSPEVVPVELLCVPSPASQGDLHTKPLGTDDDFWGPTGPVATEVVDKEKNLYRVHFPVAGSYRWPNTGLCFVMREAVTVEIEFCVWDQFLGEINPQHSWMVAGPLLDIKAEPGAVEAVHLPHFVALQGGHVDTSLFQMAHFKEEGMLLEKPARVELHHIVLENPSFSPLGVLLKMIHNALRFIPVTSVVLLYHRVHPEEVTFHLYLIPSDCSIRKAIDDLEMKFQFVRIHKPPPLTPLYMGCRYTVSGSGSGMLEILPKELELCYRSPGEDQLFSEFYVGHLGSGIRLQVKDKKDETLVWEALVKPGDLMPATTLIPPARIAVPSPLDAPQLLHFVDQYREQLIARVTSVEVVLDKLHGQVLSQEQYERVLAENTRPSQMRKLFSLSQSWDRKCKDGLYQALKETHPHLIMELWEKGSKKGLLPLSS

[4] = molecular target: Flag-tagged mouse NLRC4 (mouse) (UniProt Q3UP24); assay: as above
[5] = molecular target: Nlrp3, endogenous in mouse bone marrow derived macrophages (mouse (endogenous in BMDM)) (UniProt Q8R4B8); assay: proximity ligation; in situ PLA (Olink) on fixed mouse BMDM, endogenous proteins; nigericin 3 μM for 2 h or unstimulated; also with colchicine or nocodazole, CagA peptide, and Mark4 KO, Nlrp3 KO or Asc KO cells as controls

Row | Substance | binding [1] | binding [2] | binding [3] | binding [4] | binding [5]
1 | HA-tagged full-length human MARK4 (microtubule-affinity regulating kinase 4) (from UniProt Q96L34 1-752) | no binding | no binding | no binding | no binding | 
2 | Mark4, endogenous in mouse bone marrow derived macrophages (from UniProt Q8CIP4 1-752) |  |  |  |  | binds
